Test results from PubChem BioAssay AID1963576 (National Center for Advancing Translational Sciences (NCATS), 2024).
Out of some 46,000 compounds screened, about 60 (0.1%) were called active. Another 3% or so got no clear call; they are omitted. Calls come from the whole dose curve; as a rule, active = well fitted inhibition curve with a large enough effect; inconclusive = small, poorly fitted or top-dose-only effect; inactive = no such curve, though single readings can be large or run the other way. Some of the results follow.

Experiment: Primary qHTS assay for Inhibitors of ovarian cancer metastasis using an organotypic tumor microenvironment (TME) model.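 For activity change, negative = inhibition: plate controls were DMSO wells for no effect and tomatine positive control wells for full effect.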 Note: nearly all actives have a fitted effect of over 65% in size.
Conditions: SKOV3ip1-GFP adhesion/invasion on 3D omental model, fluorescence; series mostly up to 45.8 µM; activity change, negative = inhibition: at the top concentration
Procedure, shortened: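 Adhesion/invasion was scored as fixed GFP-labeled SKOV3ip1 cell counts (488/509 nm), normalized to DMSO and tomatine controls. Cancer cells in serum-free medium, with four compound doses (0.36-46 umol/L), sat 2 hr at RT then 16 hr at 37 C on a 48 hr fibroblast/mesothelial/ECM culture.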

outcome, inactive:
COc1ccc(-c2nc3c4ccccc4n(CC(=O)N4CCN(c5ccccc5F)CC4)c(=O)n3n2)cc1, COc1ccc(NC(=O)c2cc(C(C)=O)n3ccccc23)cc1Cl, Cc1cc(/C=C(\C#N)C(=O)Nc2ccccc2)c(C)n1-c1ccc(F)cc1, CCn1c(=O)n(-c2ccc3c(c2)OCO3)c2nc(-c3cc(OC)ccc3OC)nc(C(N)=O)c21, CCOC(=O)c1cccc(NC(=O)C2CCN(S(=O)(=O)c3c(C)noc3/C=C/c3ccc(C)cc3)CC2)c1, Cc1ccccc1C(=O)Nc1cccc(C(=O)OCc2cc(=O)n3c(C)csc3n2)c1, Cc1ccc(C)c(Nc2nn3c(=O)c4ccc(C(=O)N(C)Cc5ccccc5)cc4nc3s2)c1, CCOC(=O)c1sc2ncn(CC(=O)Nc3cc(C)cc(C)c3)c(=O)c2c1C, Cc1cc(SCC(=O)NCc2ccccc2Cl)nc(=O)[nH]1, Cc1cccc(-c2nc(C)c(CCNC(=O)C(=O)Nc3c(C)cc(C)cc3C)s2)c1, CC(=O)Nc1c(C)nn(-c2ccccc2)c1N1CCC(C(=O)Nc2ccc(Cl)cc2C)CC1, COc1ccc(OC)c(NC(=O)CSc2nccn2-c2cc(C)cc(C)c2)c1, Cc1ccc(Cn2c3ccccc3c3cnn(CC(=O)N4CCCCCC4)c(=O)c32)cc1, COc1ccc(N2CCN(C(=O)CCc3nnc4n(C)c(=O)c5sccc5n34)CC2)cc1, CCc1ccc2oc(C(=O)N(Cc3cccc(Cl)c3)Cc3ccco3)c(C)c2c1, COc1cccc(CNC(=O)CCCn2c(=O)c3cccn3c3ccc(F)cc32)c1OC, O=C(Cn1c2ncccc2c(=O)n1-c1ccccc1)Nc1cccc(C(F)(F)F)c1, Cc1ccccc1-c1nc(CS(=O)(=O)CC(=O)Nc2c(C)cccc2C)c(C)o1, Cc1ccc(CCNC(=O)Cn2ncc3c(=O)oc4ccccc4c32)cc1, CCc1cccc(NC(=O)Cn2c(=O)n(Cc3ccccc3)c(=O)c3c(C)c(C(=O)N(C)C)sc32)c1, CC(C)(C)OC(=O)N1CCC(c2c(C(=O)N3CCN(c4ccccc4F)CC3)cnn2C(C)(C)C)CC1, CC(=O)N1CCc2cc(S(=O)(=O)CCC(=O)N3CCN(c4cccc(C)c4C)CC3)ccc21, Cc1nc2c(C(=O)NCc3ccccc3)c[nH]n2c(=O)c1Cc1ccccc1Cl, Cc1cc(C)c(NC(=O)CSc2nc(=O)[nH]c3c2CCCC3)c(C)c1, CCCOC1(C(F)(F)F)NC(=O)N(c2ccc(Cl)cc2)C1=O (centres undefined), COc1cccc(NC(=O)Nc2cccc(-c3cn4cccnc4n3)c2)c1, CCOC(=O)c1c(C)[nH]c(C)c1S(=O)(=O)NCC(=O)Nc1cc(C)ccc1OC

Activity change, negative = inhibition, inactive:
COc1ccc2c(CNCc3cccs3)c(C(=O)O)n(Cc3cccc(F)c3)c2c1 3.23%, COC(=O)c1ccccc1NC(=O)c1sc2nc(C)cc(C)c2c1NC(=O)c1ccccc1Cl -4.51%, COc1ccc(CNC(=O)c2cc(C3CC3)nc3c2c(C)nn3-c2cccc(Cl)c2C)cc1 2.58%, COc1ccc(CNC(=O)Cn2ccc3cc(S(=O)(=O)N4CCCC4)ccc32)c(OC)c1 5.91%, COc1ccc(OC)c(-c2nnc3n(CCc4ccccc4)c(=O)c4ccccc4n23)c1 -2.86%, Cc1cccc(C(=O)Nc2ccc3nc(SCC(=O)N4CCc5ccccc54)sc3c2)c1 -5.85%, COc1cc(NC(=O)c2nc(-c3ccc(Cl)cc3)n3c2CCCCC3)cc(OC)c1OC 1.14%, O=C(Cc1ccccc1)Nc1sc2c(c1C(=O)Nc1ccccc1Cl)CCCC2 -32%, COc1ccc(NC(=O)c2ncoc2-c2ccco2)cc1Cl -18.8%, CC(CNC(=O)c1ccc2nc(CCc3ccccc3)oc2c1)c1ccccc1 (centres undefined) -1.84%, CCOc1ccc2oc(=O)cc(CN3CCN(C(=O)c4cccc(Cl)c4)CC3)c2c1 5.39%, COc1ccc(CNC(=O)c2ccc(NC(=O)N3CCSc4ncccc43)cc2)c(OC)c1 3.52%, Clc1ccc2ncc(-c3cccc(NC4CNC4)n3)n2c1 20.1%, COC(=O)c1ccccc1NC(=O)Cn1c(=O)cc(-c2ccccc2)c2c(C)nn(C)c21 0.857%, CCN(CC)C(=O)Cn1c(=O)n(CCCCCC(=O)Nc2ccccc2)c(=O)c2sccc21 -8.44%, Cc1ccc(NC(=O)C2CCCN2S(=O)(=O)c2cccc3nsnc23)c(Br)c1 (centres undefined) -5.2%, Cc1ccc2oc(=O)c3cc(C(=O)NCc4ccc(Cl)cc4)sc3c2c1 4.35%, Cc1ccc(CN2CCc3nc(N4CCN(c5ccccc5F)CC4)ncc3C2)s1 -1.18%, C#CCC(Cc1cnc2nc(N)nc(N)c2n1)c1ccc(C(=O)N[C@@H](CCC(=O)O)C(=O)O)cc1 (some centres undefined) 20.2%, Cc1cccc(C)c1NC(=O)CCS(=O)(=O)c1ccc2c(c1)n(C)c(=O)c(=O)n2C -5.14%, COc1ccc(-c2csc3nc(-c4ccc(F)cc4)oc(=O)c23)cc1OC 1.88%, COc1ccc(CNC(=O)c2ccc(NC(=O)N3CCCCc4ccccc43)cc2)c(OC)c1 3.31%, COc1ccc(CNC(=O)C(=O)Nc2ccccc2OC)cc1 5.72%, COC(=O)c1sc(S(=O)(=O)N2CCN(c3ccc(OC)cc3)CC2)c(C(=O)OC)c1C -0.314%, CCC(=O)N1CCc2cc(Br)cc(S(=O)(=O)CCC(=O)NCc3ccc(C)cc3)c21 6.42%, Cc1cc(O)c(C(c2ccccc2)N2CCN(c3ccccc3F)CC2)c(=O)n1Cc1ccco1 (centres undefined) -0.378%, O=C(c1ccccc1)c1ccc2n1CCC2C(=O)O (centres undefined) -1.49%, Cc1ccc(-c2nc3ccccc3[nH]2)cc1NC(=O)COc1ccc(Cl)cc1Cl -9.91%, COc1cc(NC(=O)CN2C(=O)C(c3ccc(C)cc3)=NC23CCCCCC3)cc(OC)c1 -5.42%, COc1ccc(-n2nc3c(c2NC(=O)C(=O)NCc2ccccc2)CSC3)cc1 1.18%, Cc1ccc(CN2C(=O)CC(c3ccc(Cl)cc3)c3c(C)nn(-c4nc(C)cc(C)n4)c32)cc1 (centres undefined) 9.96%, CCCC(=O)Nc1nc2c(s1)CC(C(C)(C)C)CC2 (centres undefined) 2.83%, CC1(C)N=C(c2ccc(F)cc2)C(=O)N1CC(=O)Nc1ccccc1Cl 0.634%, COc1ccc(-n2c(=O)c3ccc(C(=O)NCc4ccc(C)cc4)cc3n(Cc3ccc(F)cc3Cl)c2=O)cc1 -7.29%, COc1c(N2CCNC(C)C2)c(F)cc2c(=O)c(C(=O)O)cn(C3CC3)c12 (centres undefined) 12.1%, CCOc1ccc(-n2c(=O)c3c(C)c(C)sc3n(Cc3c(F)cccc3Cl)c2=O)cc1 2.39%, COC(=O)c1ccc(NC(=O)CSc2nccn2Cc2ccc(Cl)cc2)cc1 -13.4%, COC(=O)c1cc2oc(C)cc2n1CC(=O)Nc1ccc(OC)c(OC)c1 -3.63%, Cn1c(=O)cc(SCC(=O)NCCc2ccc(Cl)cc2)c2cc(Cl)ccc21 1.85%, Cc1cc(C)cc(NC(=O)Cn2c(=O)n(CCC(C)C)c(=O)c3cccnc32)c1 1.16%, CCN1CCN(c2cc(C)c3cc(NC(=O)c4cc(OC)c(OC)c(OC)c4)ccc3n2)CC1 -2.41%, CCOc1ccc(-c2nc(CSCC(=O)NCCc3ccccc3)c(C)o2)cc1 -4.26%, Clc1cccc(N2CCN(c3nc4ccccc4c4nc(-c5ccccc5)nn34)CC2)c1 7.97%, COc1cccc(-c2nc(S(=O)(=O)c3ccc(C)cc3)c(NCc3ccccc3)o2)c1 6.85%, COc1ccc(N2C(=O)CS(=O)(=O)C23C(=O)N(Cc2ccccc2)c2ccccc23)cc1 (centres undefined) 11.6%, O=C(CSc1nc2ccccc2c2nc(-c3ccccc3)nn12)Nc1ccc(F)cc1 -16.3%, COc1ccc(-c2cc(C(C)=O)c(C)n2CCC(=O)Nc2cccc(C)c2C)cc1 -7.07%, C=C1C(=O)OC(CCCCCCCC)C1C(=O)O (centres undefined) -18.7%, COc1cc(NC(=O)CN(C)S(=O)(=O)c2ccc3c(c2)CCCC(=O)N3)cc(OC)c1OC -1.16%, CCc1ccc2c(c1)c(=O)c(S(=O)(=O)c1ccccc1)cn2CC(=O)Nc1cc(C)ccc1C 49.7%, Cc1cccc(NC(=O)CSc2nc(C)cc(C)c2C(=O)Nc2ccc(Cl)cc2)c1 -21.3%, Cc1ccc(C)c(NC(=O)Cn2cc(S(=O)(=O)N3CCCC3)c(S(=O)(=O)N3CCCC3)c2)c1 4.03%, COc1ccc(Cl)cc1NC(=O)c1cc(=O)c2cc(C)cc(C)c2o1 -22.9%, CCc1nn2c(=O)cc(COC(=O)c3cccc(NC(=O)COc4ccccc4F)c3)nc2s1 3.22%, CCc1nnc(SC(CC)C(=O)NCCOC)c2cc3occc3n12 (centres undefined) 6.94%, CN1CCN(C(=O)c2cnn(-c3ccccc3)c2C2CCN(C(=O)OC(C)(C)C)CC2)CC1 -4.26%, CCOc1ccccc1N(C)C(=O)c1cc(S(=O)(=O)NCc2ccc(C)cc2)ccc1F -38.8%, CCN(CC)CCCC(C)Nc1nc(C)cc(Nc2ccc3nc(C)cc(N)c3c2)n1 (centres undefined) 10.7%, COC(=O)c1cc2sc(C)cc2n1Cc1nc(-c2cccc(Br)c2)oc1C 0.0914%, CCOC(=O)C1CCN(c2csc3ccc(C)cc3c2=O)CC1 -0.547%, Cc1cccc(-c2nc3c4ccccc4n(CC(=O)Nc4cccc(F)c4)c(=O)n3n2)c1 -10.3%, Cc1cccc(NC(=O)c2c(C)oc3ncn(CC(C)C)c(=O)c23)n1 0.191%, Cc1sc2ncn(CC(=O)N(C)c3ccc(Br)cc3)c(=O)c2c1S(=O)(=O)N1CCC(C)CC1 66.1%, CC(C)(C)c1ccc(OCC(=O)N2CCC(c3nc4ccccc4s3)CC2)cc1 -3.66%, CCOc1ccc(-c2nnc(Nc3ccc(S(N)(=O)=O)cc3)c3ccccc23)cc1 7.11%, O=C(NCCc1ccccc1)c1cc(-c2ccc(Cl)cc2)on1 -4.76%, COc1ccc(NC(=O)c2noc3c2CCCC3)cc1Cl 4.28%
